# Reference: the BET-seq Pho4 binding data (Le et al. 2018)
# The other results are listed elsewhere or left out. The energies were worked out here from pooled read counts, against the library average; single values are noisy.
# Target: T1, Pho4 (S. cerevisiae) (UniProt P07270)
# T1 sequence: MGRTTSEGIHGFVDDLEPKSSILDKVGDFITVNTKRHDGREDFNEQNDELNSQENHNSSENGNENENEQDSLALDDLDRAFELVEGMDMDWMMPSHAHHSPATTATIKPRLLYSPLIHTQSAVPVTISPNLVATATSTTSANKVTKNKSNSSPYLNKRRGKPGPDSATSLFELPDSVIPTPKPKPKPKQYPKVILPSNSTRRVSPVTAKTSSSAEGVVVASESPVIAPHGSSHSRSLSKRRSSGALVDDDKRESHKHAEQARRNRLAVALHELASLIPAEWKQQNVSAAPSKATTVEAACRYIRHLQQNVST
# Test: relative binding free energy (BET-seq); higher = weaker binding
# Details: reference: library average
row,Sequence,relative binding free energy
1,TTATTCACGTGATGTA,0.31 kcal/mol
2,GGCGTCACGTGATTGA,0.32 kcal/mol
3,GGGCTCACGTGATTTA,0.41 kcal/mol
4,TATGTCACGTGGCGTT,-0.01 kcal/mol
5,GTGAACACGTGTCGGT,0.11 kcal/mol
6,GCTGCCACGTGGGTTG,-0.05 kcal/mol
7,TGATTCACGTGACGGT,0.31 kcal/mol
8,ATTTTCACGTGGGTGG,0.15 kcal/mol
9,TGGCTCACGTGGCGAG,0.18 kcal/mol
10,GTTTACACGTGGTACA,0.1 kcal/mol
11,ATAGACACGTGGGAGA,0.1 kcal/mol
12,GGAGCCACGTGAGCGG,0.26 kcal/mol
13,CTGGCCACGTGGTGAT,-0.07 kcal/mol
14,TATTACACGTGGCCGG,0.18 kcal/mol
15,CGAGGCACGTGTGGTA,-0.09 kcal/mol
16,CATGGCACGTGTGTTT,0.03 kcal/mol
17,TAATGCACGTGCGGTT,-0.01 kcal/mol
18,GGAATCACGTGGTGGC,0.19 kcal/mol
19,TCGTGCACGTGTTGCG,0.05 kcal/mol
20,TGAGGCACGTGATAGT,-0.12 kcal/mol
21,GTCGGCACGTGGTTGG,-0.06 kcal/mol
22,AAGGGCACGTGGGCGG,-0.18 kcal/mol
23,CTAGGCACGTGCGGCG,-0.12 kcal/mol
24,TGTGTCACGTGGCCGG,-0.09 kcal/mol
25,ACGTTCACGTGGCGGT,0.24 kcal/mol
26,TGTAGCACGTGCAGAT,-0.09 kcal/mol

row,Sequence,relative binding free energy
1,GTGTACACGTGTTATT,0.09 kcal/mol
2,TAGGGCACGTGTGGAT,0 kcal/mol
3,TACGGCACGTGCTGTT,-0.21 kcal/mol
4,AGTAACACGTGATTGT,0.03 kcal/mol
5,CTGGGCACGTGCTTGT,-0.13 kcal/mol
6,TCCGGCACGTGGTAAT,0.17 kcal/mol
7,GGATGCACGTGCTTTG,-0.18 kcal/mol
8,AGTTTCACGTGCATGT,0.21 kcal/mol
9,ATGAACACGTGGGTAT,-0.06 kcal/mol
10,TGGTTCACGTGCAAGG,0.27 kcal/mol
11,ATGGTCACGTGAACTG,0.33 kcal/mol
12,CGGGGCACGTGCATGG,-0.27 kcal/mol
13,TGTTGCACGTGGAACG,0.05 kcal/mol
14,TATGTCACGTGCAGCG,0.14 kcal/mol
15,GTCTTCACGTGAGTTA,0.32 kcal/mol
16,GTTTGCACGTGGGGGA,-0.06 kcal/mol
17,TGCGTCACGTGGTGCG,-0.17 kcal/mol
18,ATGGGCACGTGTGCTG,-0.03 kcal/mol
19,GGTATCACGTGGAAGG,0.22 kcal/mol
20,ATCGGCACGTGGATAT,-0.03 kcal/mol
21,TATGGCACGTGGGTAG,-0.29 kcal/mol
22,TGGTTCACGTGAAGGT,0.43 kcal/mol
23,TTTTGCACGTGACGGT,0.01 kcal/mol
24,GTAGTCACGTGCTTGG,0.01 kcal/mol
25,GGGGCCACGTGGGCTT,-0.11 kcal/mol
26,AATTACACGTGCATGG,0.11 kcal/mol

row,Sequence,relative binding free energy
1,ATGATCACGTGGCAGG,0.08 kcal/mol
2,TTCAACACGTGCGTTG,0.13 kcal/mol
3,AGATTCACGTGTGCGC,0.37 kcal/mol
4,ATCGGCACGTGTTTTA,-0.01 kcal/mol
5,CTGTTCACGTGTGATT,0.14 kcal/mol
6,GCGAGCACGTGGTGAG,-0.09 kcal/mol
7,GGGGACACGTGTGAAG,0.09 kcal/mol
8,GGCCACACGTGTGGTT,0.19 kcal/mol
9,ATAAGCACGTGTAGGA,-0.05 kcal/mol
10,TGTTGCACGTGTGGGT,0.14 kcal/mol
11,GTAGGCACGTGGTCGC,-0.16 kcal/mol
12,AATTGCACGTGGTATT,-0.09 kcal/mol
13,TTGGTCACGTGAAAGG,0.4 kcal/mol
14,AATCACACGTGTGGGG,0.09 kcal/mol
15,TGCCGCACGTGAGGTG,0.1 kcal/mol
16,GGCAGCACGTGATATG,0.13 kcal/mol
17,GGCATCACGTGGAGTT,0.22 kcal/mol
18,GGGGACACGTGCGTGG,-0.07 kcal/mol
19,CGTAGCACGTGCTGGG,-0.31 kcal/mol
20,TGTTACACGTGTGTGC,0.09 kcal/mol
21,TGGTACACGTGCAGTT,0.07 kcal/mol
22,GTTCACACGTGTTGTA,0.15 kcal/mol
23,TTTTACACGTGTGATC,0.14 kcal/mol
24,CGGTTCACGTGCATGT,0.2 kcal/mol
25,GGGCGCACGTGTTGGG,0.01 kcal/mol
26,GGAGGCACGTGAAAAG,0.16 kcal/mol

row,Sequence,relative binding free energy
1,CTATGCACGTGAGGTT,0.32 kcal/mol
2,GGTTCCACGTGCTGGG,0.1 kcal/mol
3,TATGGCACGTGTTTCA,-0.12 kcal/mol
4,TGAATCACGTGATGTG,0.2 kcal/mol
5,CGGTGCACGTGTAGCG,-0.06 kcal/mol
6,TTAGTCACGTGGTACG,0.11 kcal/mol
7,TATAACACGTGTTGTT,-0.03 kcal/mol
8,GTGCGCACGTGCTGGT,-0.32 kcal/mol
9,TGTAGCACGTGCGGTA,-0.08 kcal/mol
10,CGTTGCACGTGGGGTA,-0.1 kcal/mol
11,TGTATCACGTGATTGT,0.33 kcal/mol
12,GTGTGCACGTGGGCAT,-0.08 kcal/mol
13,AGGGTCACGTGGGGGT,-0.12 kcal/mol
14,GGGAACACGTGGGATA,0.04 kcal/mol
15,ATCGTCACGTGTAGGC,0.28 kcal/mol
16,AATTTCACGTGAGATA,0.51 kcal/mol
17,TGTGTCACGTGAGTCT,0.36 kcal/mol
18,AGGCGCACGTGTGGAT,-0.1 kcal/mol
19,AACTTCACGTGTTTAG,0.25 kcal/mol
20,TTGGACACGTGGGATC,-0.05 kcal/mol
21,GTTGGCACGTGCCGTG,-0.1 kcal/mol
22,CGCTGCACGTGAGGTG,0.23 kcal/mol
23,TTGTTCACGTGCCATT,0.29 kcal/mol
24,GCTTTCACGTGATGAG,0.39 kcal/mol
25,CAGGGCACGTGGGCTG,-0.33 kcal/mol
26,AAGGGCACGTGGTCAG,-0.15 kcal/mol

row,Sequence,relative binding free energy
1,TTGTACACGTGTATGC,0.14 kcal/mol
2,TGGCACACGTGTTGGG,0.15 kcal/mol
3,TTGCTCACGTGGATTG,0.16 kcal/mol
4,GGACGCACGTGTGGGG,-0.11 kcal/mol
5,GGGGACACGTGGTCAA,-0.03 kcal/mol
6,GGTGGCACGTGATAAA,-0.03 kcal/mol
7,TGTGACACGTGGTATG,-0.09 kcal/mol
8,ATACTCACGTGGTATT,0.19 kcal/mol
9,ATGCACACGTGGAGGG,0.1 kcal/mol
10,ATTGGCACGTGGCCTG,-0.15 kcal/mol
11,CTGAGCACGTGAGGGG,0.11 kcal/mol
12,AGAGACACGTGATTTG,0.06 kcal/mol
13,CTGTGCACGTGTAAGT,0.15 kcal/mol
14,ATTTGCACGTGAAAAG,0.08 kcal/mol
15,GGTGTCACGTGAGCTT,0.23 kcal/mol
16,TGTAGCACGTGCATAG,-0.09 kcal/mol
17,GAGGTCACGTGAAGGA,0.35 kcal/mol
18,GGGTACACGTGCGTTT,0.09 kcal/mol
19,GGCGACACGTGTAAGG,0.26 kcal/mol
20,AGGGACACGTGAGTTT,0.47 kcal/mol
21,TTTTTCACGTGTAATC,0.4 kcal/mol
22,TCGGCCACGTGGGCAG,0 kcal/mol
23,GGGATCACGTGAAGTG,0.37 kcal/mol
24,TTAATCACGTGGATGC,0.11 kcal/mol
25,ATCGACACGTGGGGTG,0.02 kcal/mol
26,TGGATCACGTGGGTGC,0.13 kcal/mol

row,Sequence,relative binding free energy
1,TAAGGCACGTGACGTA,-0.07 kcal/mol
2,TTAATCACGTGGAGCG,0.15 kcal/mol
3,GGTGACACGTGGCTTT,0.03 kcal/mol
4,TGGGGCACGTGACGGT,0.01 kcal/mol
5,TGGTACACGTGGCAGT,0.05 kcal/mol
6,ACGATCACGTGAGGGG,0.13 kcal/mol
7,AGGTACACGTGTAGGT,0.19 kcal/mol
8,GTTTGCACGTGCATAG,-0.09 kcal/mol
9,GAAAGCACGTGGGGTG,-0.19 kcal/mol
10,ATAGGCACGTGTTTAC,-0.13 kcal/mol
11,GGGGCCACGTGGGCAA,-0.11 kcal/mol
12,GTAGTCACGTGATGTA,0.17 kcal/mol
13,GGGTTCACGTGCAGTT,0.31 kcal/mol
14,CTTGTCACGTGTGTCG,0.01 kcal/mol
15,AGAGTCACGTGGCTGG,-0.1 kcal/mol
16,GAAGGCACGTGTTTGT,-0.2 kcal/mol
17,TCAGGCACGTGTTCGG,-0.11 kcal/mol
18,GATGGCACGTGGATTA,0.06 kcal/mol
19,TTAGGCACGTGGCTAG,-0.08 kcal/mol
20,TCTGGCACGTGGGGCA,-0.37 kcal/mol
21,TTATTCACGTGGTCGA,0.12 kcal/mol
22,ATGGACACGTGAGTGG,0.11 kcal/mol
23,TGCGGCACGTGTTCTG,-0.07 kcal/mol
24,CATTGCACGTGCGTTT,0.01 kcal/mol
25,GTTATCACGTGTAGAT,0.13 kcal/mol
26,AGTCGCACGTGGTAGT,-0.18 kcal/mol

row,Sequence,relative binding free energy
1,GGGGCCACGTGGAGCT,-0.05 kcal/mol
2,ATTTTCACGTGTAATT,0.31 kcal/mol
3,CTTATCACGTGATTTG,0.28 kcal/mol
4,TTCTACACGTGTGTAT,0.13 kcal/mol
5,TGGGTCACGTGTCTGC,0.15 kcal/mol
6,ATAATCACGTGTCGTA,0.22 kcal/mol
7,TATACCACGTGTTGTT,-0.2 kcal/mol
8,TCTTTCACGTGTTTCT,0.23 kcal/mol
9,TGATTCACGTGACTGG,0.23 kcal/mol
10,TTATACACGTGAAATG,0.12 kcal/mol
11,GGCGGCACGTGCTTTT,0.11 kcal/mol
12,AAGGACACGTGGCGGG,0.06 kcal/mol
13,CTTCTCACGTGGTTGT,0.17 kcal/mol
14,AGATTCACGTGTAGGG,0.19 kcal/mol
15,GTCTCCACGTGTGGGT,0.08 kcal/mol
16,GGATTCACGTGGCATG,0.29 kcal/mol
17,TGGTCCACGTGGTAGG,-0.04 kcal/mol
18,CGTAGCACGTGTATTG,-0.16 kcal/mol
19,TGGGACACGTGTATAA,0.14 kcal/mol
20,ATATGCACGTGGGCTA,-0.32 kcal/mol
21,TCGGACACGTGTGGAG,0.22 kcal/mol
22,AAAAGCACGTGAAGGG,0.31 kcal/mol
23,ATATACACGTGTGGTA,-0.14 kcal/mol
24,GTGTGCACGTGGTTAC,0.05 kcal/mol
25,TTTATCACGTGCAGGC,0.15 kcal/mol
26,GTGAACACGTGGCGTG,-0.13 kcal/mol

row,Sequence,relative binding free energy
1,ATATTCACGTGTAATG,0.13 kcal/mol
2,CGAGGCACGTGGCTGG,-0.07 kcal/mol
3,GTCGTCACGTGATGTG,0.21 kcal/mol
4,TCGTTCACGTGATAAT,0.32 kcal/mol
5,GGGGCCACGTGGTAGC,-0.12 kcal/mol
6,GAGGTCACGTGGATGT,0.1 kcal/mol
7,GGCTGCACGTGGTGCT,-0.16 kcal/mol
8,TGGGTCACGTGGATCT,-0.02 kcal/mol
9,TGTTTCACGTGTTTCA,0.25 kcal/mol
10,ATTAGCACGTGTCCGG,-0.02 kcal/mol
11,TTGTACACGTGTAGCG,0.04 kcal/mol
12,GTTGTCACGTGGACGA,0.02 kcal/mol
13,GTGAGCACGTGTTGGG,-0.01 kcal/mol
14,TAAATCACGTGTTTGC,0.31 kcal/mol
15,TAGTGCACGTGGTTTC,0 kcal/mol
16,GGTAACACGTGGAGTG,-0.15 kcal/mol
17,TAAATCACGTGTTAAT,0.29 kcal/mol
18,TACAGCACGTGTGGGG,-0.11 kcal/mol
19,AGTGGCACGTGGTTTG,-0.19 kcal/mol
20,AGTAGCACGTGGCGGA,-0.03 kcal/mol
21,CGGTCCACGTGGGTAA,0.11 kcal/mol
22,GTTGGCACGTGCAAAT,0.13 kcal/mol
23,CTTTGCACGTGTAGGT,-0.06 kcal/mol
24,TTATTCACGTGTAGAA,0.24 kcal/mol
25,GGGACCACGTGTTGGG,0 kcal/mol
26,ATTGGCACGTGGTAGG,-0.11 kcal/mol

row,Sequence,relative binding free energy
1,TGGTTCACGTGGTTTC,0.32 kcal/mol
2,TAGGGCACGTGGGACA,-0.03 kcal/mol
3,ATTTCCACGTGCGGTT,0.02 kcal/mol
4,GCGGGCACGTGTATTT,0.03 kcal/mol
5,TAAGACACGTGTGGTG,0.03 kcal/mol
6,TTTAACACGTGGCTTT,-0.17 kcal/mol
7,AGGTACACGTGGATTT,0.15 kcal/mol
8,CGTAGCACGTGGTTGG,-0.11 kcal/mol
9,CACAGCACGTGTGGGG,-0.14 kcal/mol
10,TGGTGCACGTGAGATT,0.32 kcal/mol
11,TACTTCACGTGTTATA,0.07 kcal/mol
12,TGGATCACGTGCGTTA,0.1 kcal/mol
13,TTGGGCACGTGGAATA,0.05 kcal/mol
14,AGAAACACGTGAGGTT,0.32 kcal/mol
15,CTTGTCACGTGCAGTG,0.1 kcal/mol
16,TACTGCACGTGTGGCG,0.08 kcal/mol
17,TTTATCACGTGTATTC,0.09 kcal/mol
18,AGGTTCACGTGGGATG,0.28 kcal/mol
19,ACATTCACGTGAGTGT,0.31 kcal/mol
20,TTAGTCACGTGTAGTA,0.19 kcal/mol
21,GACGTCACGTGTGTTT,0.35 kcal/mol
22,GGAGGCACGTGTTGCG,-0.15 kcal/mol
